The source of these data is the supplement of paper PMC10338343.

± gives the standard deviation. Whole data set: some 6,600 sequences, median “pre-steady-state target cleavage rate” near 0.07, cut for the highest 2% near 0.72. This is a selection; strong and weak results do not stand in their true shares.

In the assay the test system is MIWI (PIWIL1) piRISC loaded with Kctd7 piRNA (30 nt). The assay can be described thus: pre-steady-state target cleavage rate (min^-1); MIWI and MILI are mouse PIWI proteins and EfPiwi is from a freshwater sponge; tags in brackets are library labels; higher = faster piRNA-guided slicing of the target. The following applies: guide: Kctd7 piRNA 5'p-UGUUAAUCUCUCAGAGAAGGUGACAGUGAU; auxiliary factor: 500 nM mouse GTSF1. Summed up:
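Using HEPES–potassium acetate buffer at 33 °C, 1 nM active affinity-purified piRISC with a single synthetic guide was mixed with 0.1 nM transcribed, DNA-blocked target RNA library for 0–8 or 0–960 min, with or without 500 nM GTSF1 partner protein. Uncleaved targets were sequenced and normalised to depth and to weakly complementary targets, and three trials were pooled with k3 capped at 0.0001 min^-1. A burst-and-steady-state fit gave the pre-steady-state cleavage rate.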
AUCACUGUCACCUUCUCUGAGAAAUUAACA: the “pre-steady-state target cleavage rate” value was 0.257 ± 0.026.

In the case of UAGUGUGUCACCUUCUCUGUGAGAUUAACA, the “pre-steady-state target cleavage rate” value was found to be 0.26 ± 0.015.

UAGUGACACAACCUUCUCUGAGAGAUUAACA: the “pre-steady-state target cleavage rate” value came out at 0.345 ± 0.029.

Regarding UAGUGACACACCUUCUCUCAGAGAUUAUGA, the “pre-steady-state target cleavage rate” value was 0.005 ± 0.004.

As for UAGUGACACACCUACUCUGACAGAUUAACA, the “pre-steady-state target cleavage rate” value amounted to 0.016 ± 0.003.

As for UAGACUGAGACCUUCUCUGAGAGAUUAAGA, the “pre-steady-state target cleavage rate” value is 0.106 ± 0.016.

Regarding UAGUGACAGUCCUUGCUCUGAGAGAUUAACA, the “pre-steady-state target cleavage rate” value was 0.0279 ± 0.0047.

Regarding UAGUGAGUCACCUUCUCUGACAGAUAAACA, the “pre-steady-state target cleavage rate” value was found to be 0.177 ± 0.05.

UUCACUGUCACCUUCUCUGAGAUGAUUAACA: the “pre-steady-state target cleavage rate” value is 0.0295 ± 0.0066.

As to UAGUCUGUCACCUUCUGUGAGAGAUUUACA, the “pre-steady-state target cleavage rate” value turned out to be 0.0394 ± 0.0071.

In the case of UAGACUGUCAUCCUUCUCUGAGAGAUUAACA, the “pre-steady-state target cleavage rate” value was found to be 0.262 ± 0.023.

For UAGUGUGUCACCUUCUCUGAGAGGUUAACA, the “pre-steady-state target cleavage rate” value was 0.0968 ± 0.013.

With UAGUGACUCAGCUUGUCUGAGAGAUUAACA, the “pre-steady-state target cleavage rate” value was found to be 0.132 ± 0.021.

Take UAGUCUGUGUGCUUCUCUGAGAGAUUAACA: the “pre-steady-state target cleavage rate” value turned out to be 0.048 ± 0.0074.

Take UAGUGACACACGUUCUCUGACAGAUUAACA: the “pre-steady-state target cleavage rate” value was determined as 0.00564 ± 0.004.

On to UAGUGACUCACCAUGUCUGAGAGAUUAACA, for which the “pre-steady-state target cleavage rate” value amounted to 0.0069 ± 0.003.

In the case of UAGUGUGUCACCUUCACUGAGACAUUAACA, the “pre-steady-state target cleavage rate” value was determined as 0.139 ± 0.022.

Consider UAGUGAGUCACGUUCACUGAGAGAUUAACA, for which the “pre-steady-state target cleavage rate” value came out at 0.46 ± 0.026.

With UUCACUGUCACCUUGUCUGAGAGAAUAACA, the “pre-steady-state target cleavage rate” value turned out to be 0.264 ± 0.067.

For UACAGUGUCACCUUCUCAGAGAGAUUAACA, the “pre-steady-state target cleavage rate” value stood at 0.421 ± 0.026.

Turning to UAGUGACACACCUUCUCUGACAGAAUAACA, the “pre-steady-state target cleavage rate” value came to 0.00829 ± 0.0033.

For UUGACUGUCACCUUCUCUGAGAGAUUAUGA, the “pre-steady-state target cleavage rate” value was 0.0851 ± 0.016.

For UACACUGUCACCUUCUCCUGAGAGAUUAACA, the “pre-steady-state target cleavage rate” value is 0.115 ± 0.043.

Regarding UAGUGUCUCACCUUCUCUGAGAGAUAUUGA, the “pre-steady-state target cleavage rate” value is 0.0113 ± 0.0057.

Consider UAGUGAGUCAGCUUCACUGAGAGAUUAACA, for which the “pre-steady-state target cleavage rate” value came out at 0.424 ± 0.024.

Turning to UAGUGAGACACCUUGUCUGAGAGAUUAACA, the “pre-steady-state target cleavage rate” value was 0.142 ± 0.022.

Regarding UAGUCUCUCACCUUCUCUGAGAGAUUUUGA, the “pre-steady-state target cleavage rate” value came to 0.0332 ± 0.014.

In the case of AUCUCUGUCACGUUCUCUGAGAGAUUAACA, the “pre-steady-state target cleavage rate” value worked out at 0.657 ± 0.03.

As for UAGUGUGUCACCUUCUCAGACAGAUUAACA, the “pre-steady-state target cleavage rate” value turned out to be 0.131 ± 0.012.

For UUCUGAGUCACCUUCUCUGAGAGAUUAACA, the “pre-steady-state target cleavage rate” value is 0.657 ± 0.059.

On to UAGUGACUCACCUUCAGUGAGAGAUUAACA, for which the “pre-steady-state target cleavage rate” value was 0.0171 ± 0.0036.

Take UACACUGUCACCUUCUCUGAGAGAUUAUCA: the “pre-steady-state target cleavage rate” value is 0.302 ± 0.043.

As for UAGUCUGUCACCUUCUCUCACAGAUUAACA, the “pre-steady-state target cleavage rate” value was 0.0152 ± 0.0046.

On to UAGUGAGUCACCUUCUCUGAGAGAUCUAACA, for which the “pre-steady-state target cleavage rate” value amounted to 0.2 ± 0.029.

Regarding UAGUGUGUCACCUUCUCAGUGAGAUUAACA, the “pre-steady-state target cleavage rate” value is 0.0358 ± 0.0077.

For UUCACUGUCACCUUCUCUGACAGAUUUACA, the “pre-steady-state target cleavage rate” value stood at 0.0247 ± 0.0078.

Regarding UAGUGACAGUGCUUCUCUGUGAGAUUAACA, the “pre-steady-state target cleavage rate” value was 0.00326 ± 0.0029.

On to UAGUGACAGACCUUCUGUGAGAGAUUAAGA, for which the “pre-steady-state target cleavage rate” value came to 0.0177 ± 0.0059.

UAGUGACAGUCCUUCUCUGAGAGAUUACACA: the “pre-steady-state target cleavage rate” value was 0.0118 ± 0.0037.

For the sequence UAGACUGUCACCUUCUCAGAGAGUUUAACA, the “pre-steady-state target cleavage rate” value came out at 0.138 ± 0.02.

Consider UACACUGUCACCUUCUCUGAGAGAUUAAGCA, for which the “pre-steady-state target cleavage rate” value worked out at 0.279 ± 0.041.

AUCACUGUCACCUUCUCUGAGAGUUUAACA: the “pre-steady-state target cleavage rate” value amounted to 0.426 ± 0.064.

With UUCACUGUCACGUUCUCUGAGAGAUUAUCA, the “pre-steady-state target cleavage rate” value worked out at 0.275 ± 0.034.

With UACACUGUCACCUUCUCUGAGUGAAUAACA, the “pre-steady-state target cleavage rate” value is 0.0294 ± 0.012.

Take UAGACUGUCACCUUCUCUGAGUGAAUAACA: the “pre-steady-state target cleavage rate” value worked out at 0.00226 ± 0.0021.

For UACACUGACACCUUCUCUGAGAGAUAAACA, the “pre-steady-state target cleavage rate” value was found to be 0.246 ± 0.05.

For UAGUGAGUCACCUUCUCUGAGAGAAAAAGA, the “pre-steady-state target cleavage rate” value stood at 0.0187 ± 0.009.

Consider UACACUGUCAGCUUGUCUGAGAGAUUAACA, for which the “pre-steady-state target cleavage rate” value is 0.562 ± 0.027.

On to UAGUGUGUCACCUACUCUGAGAGAUUAUCA, for which the “pre-steady-state target cleavage rate” value worked out at 0.468 ± 0.07.

With UAGACUGUCACUUCUCUGAGAGAUUAACA, the “pre-steady-state target cleavage rate” value was 0.466 ± 0.041.

As to UAGUGAGUCACUCUUCUCUGAGAGAUUAACA, the “pre-steady-state target cleavage rate” value was found to be 0.32 ± 0.021.

With AUCACUGUCACCUUCUCUGAGAGAAUUACA, the “pre-steady-state target cleavage rate” value stood at 0.428 ± 0.095.

As to UACACUGUCUCCUUCUCUGAGACAUUAACA, the “pre-steady-state target cleavage rate” value is 0.0687 ± 0.0093.

In the case of UUCACUGUCACCUUGUCUGAGAGAUUAUGA, the “pre-steady-state target cleavage rate” value was determined as 0.362 ± 0.075.
